These are yes or no findings as the source states them, for the method shown. Binding seen in cells or lysates may run through a third protein. Some entries that bind do so weakly or less than the wild type. For some of these results: Where a sequence is shown, tags or fusion partners need not be part of it.

Chains of the proteins cited; added tags and fusions are not shown.
UniProt P49815: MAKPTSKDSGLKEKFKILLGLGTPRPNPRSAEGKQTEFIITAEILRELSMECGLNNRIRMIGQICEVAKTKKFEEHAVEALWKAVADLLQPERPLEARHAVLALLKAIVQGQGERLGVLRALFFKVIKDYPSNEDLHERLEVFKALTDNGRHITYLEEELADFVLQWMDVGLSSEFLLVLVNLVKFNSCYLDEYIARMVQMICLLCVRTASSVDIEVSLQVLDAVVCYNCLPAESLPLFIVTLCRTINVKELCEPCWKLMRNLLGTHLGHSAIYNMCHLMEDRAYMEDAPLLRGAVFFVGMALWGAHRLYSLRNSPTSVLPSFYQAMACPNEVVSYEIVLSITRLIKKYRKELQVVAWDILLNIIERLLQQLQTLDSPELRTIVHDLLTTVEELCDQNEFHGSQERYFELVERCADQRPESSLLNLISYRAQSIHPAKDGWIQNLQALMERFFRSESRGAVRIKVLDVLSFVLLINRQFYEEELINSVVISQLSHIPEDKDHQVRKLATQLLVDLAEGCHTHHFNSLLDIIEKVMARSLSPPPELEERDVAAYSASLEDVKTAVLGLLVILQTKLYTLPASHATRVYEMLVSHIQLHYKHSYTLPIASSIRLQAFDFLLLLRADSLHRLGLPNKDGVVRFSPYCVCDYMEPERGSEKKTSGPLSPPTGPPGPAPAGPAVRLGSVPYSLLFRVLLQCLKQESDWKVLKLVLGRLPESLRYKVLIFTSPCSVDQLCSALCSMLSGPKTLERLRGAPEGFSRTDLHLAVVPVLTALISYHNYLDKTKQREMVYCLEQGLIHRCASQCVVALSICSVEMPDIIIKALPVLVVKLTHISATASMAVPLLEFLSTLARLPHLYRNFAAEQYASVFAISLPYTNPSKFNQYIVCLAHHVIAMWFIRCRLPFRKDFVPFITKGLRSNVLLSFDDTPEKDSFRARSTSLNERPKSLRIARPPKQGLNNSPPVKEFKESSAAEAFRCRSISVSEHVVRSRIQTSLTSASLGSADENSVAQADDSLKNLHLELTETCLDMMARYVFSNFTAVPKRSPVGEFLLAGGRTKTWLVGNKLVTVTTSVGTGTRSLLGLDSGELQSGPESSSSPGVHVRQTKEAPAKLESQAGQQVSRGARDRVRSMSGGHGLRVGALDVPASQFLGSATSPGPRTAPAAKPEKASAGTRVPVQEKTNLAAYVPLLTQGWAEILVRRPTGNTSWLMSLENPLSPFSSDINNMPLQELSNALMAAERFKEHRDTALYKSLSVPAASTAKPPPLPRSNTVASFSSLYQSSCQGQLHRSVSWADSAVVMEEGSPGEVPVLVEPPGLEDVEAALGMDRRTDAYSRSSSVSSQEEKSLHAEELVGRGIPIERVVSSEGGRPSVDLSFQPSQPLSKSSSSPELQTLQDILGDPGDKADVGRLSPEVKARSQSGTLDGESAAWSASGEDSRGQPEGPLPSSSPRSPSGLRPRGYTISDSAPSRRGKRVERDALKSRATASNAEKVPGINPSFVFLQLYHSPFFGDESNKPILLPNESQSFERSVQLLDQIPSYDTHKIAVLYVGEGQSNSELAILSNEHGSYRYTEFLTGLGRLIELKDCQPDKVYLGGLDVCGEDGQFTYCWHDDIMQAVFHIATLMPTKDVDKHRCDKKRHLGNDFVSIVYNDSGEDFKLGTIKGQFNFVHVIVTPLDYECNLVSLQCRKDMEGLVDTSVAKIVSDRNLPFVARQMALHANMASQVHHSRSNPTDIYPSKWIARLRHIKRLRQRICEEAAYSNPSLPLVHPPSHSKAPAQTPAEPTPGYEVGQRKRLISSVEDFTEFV

In test [1] the target is T1, Arrest-defective protein 1 (ARD1), endogenous (human (endogenous in MCF-7 and MDA-MB-231)), P41227.
T1 chain: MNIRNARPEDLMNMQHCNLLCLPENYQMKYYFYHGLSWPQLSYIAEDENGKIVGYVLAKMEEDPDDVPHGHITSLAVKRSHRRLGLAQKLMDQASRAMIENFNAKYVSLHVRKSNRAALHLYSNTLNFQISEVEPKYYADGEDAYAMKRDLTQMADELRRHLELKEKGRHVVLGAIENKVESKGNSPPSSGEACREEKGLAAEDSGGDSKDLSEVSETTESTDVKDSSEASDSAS
In words: co-IP; endogenous proteins; breast cancer cells serum-starved overnight, TNFα (10 ng/ml) 30 min; lysates immunoprecipitated with anti-ARD1, immunoblot anti-IKKβ; IKKα co-IP and immunoblot as control; CHAPS cell extract buffer. To be noted: remark: other sources report otherwise. A general note: Immunoblotting shows a protein as a band on a membrane.

A further test deals with T2, HA-ARD1 (human), P41227.
T2 chain: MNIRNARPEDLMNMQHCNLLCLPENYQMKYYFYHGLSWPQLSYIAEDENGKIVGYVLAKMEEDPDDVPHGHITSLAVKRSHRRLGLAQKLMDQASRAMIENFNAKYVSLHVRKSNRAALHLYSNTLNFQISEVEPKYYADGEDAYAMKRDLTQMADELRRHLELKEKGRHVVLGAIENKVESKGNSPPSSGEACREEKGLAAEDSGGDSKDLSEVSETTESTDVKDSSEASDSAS
In words: co-IP; HEK293T cotransfected with Flag-IKKβ, Flag-IKKα or K44A kinase-dead mutants and HA-ARD1; immunoprecipitation (Supplementary Fig. 1B). The following applies: remark: other sources report otherwise.

For test [2], the target named is T3, Arrest-defective protein 1 (ARD1), endogenous (human (endogenous in MCF-7 and MDA-MB-231)) (UniProt P41227).
T3 sequence: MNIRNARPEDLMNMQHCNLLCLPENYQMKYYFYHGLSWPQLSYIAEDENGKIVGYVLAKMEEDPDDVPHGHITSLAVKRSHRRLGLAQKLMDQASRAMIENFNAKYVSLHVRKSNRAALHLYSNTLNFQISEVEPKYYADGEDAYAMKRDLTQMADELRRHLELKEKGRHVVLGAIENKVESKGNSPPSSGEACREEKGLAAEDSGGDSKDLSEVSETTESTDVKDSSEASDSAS
In words: co-IP; endogenous proteins; breast cancer cells serum-starved overnight, TNFα (10 ng/ml) 30 min; lysates immunoprecipitated with anti-ARD1, immunoblot anti-IKKβ; IKKα co-IP and immunoblot as control; CHAPS cell extract buffer.

For the next test, the target named is T4, HA-ARD1 (human) (UniProt P41227).
T4 sequence: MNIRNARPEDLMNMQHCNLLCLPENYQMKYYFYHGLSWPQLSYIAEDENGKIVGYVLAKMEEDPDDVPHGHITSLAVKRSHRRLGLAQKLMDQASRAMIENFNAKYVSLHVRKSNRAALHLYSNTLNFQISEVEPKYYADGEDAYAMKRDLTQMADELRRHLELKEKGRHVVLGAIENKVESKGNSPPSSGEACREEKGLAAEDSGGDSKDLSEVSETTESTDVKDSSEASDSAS
In words: co-IP; HEK293T cotransfected with Flag-IKKβ, Flag-IKKα or K44A kinase-dead mutants and HA-ARD1; immunoprecipitation (Supplementary Fig. 1B).

For another test, the target named is HA-TSC2 (UniProt P49815). In words: co-IP; HEK293T cotransfected with FLAG-IKKβ, Myc-ARD1 and HA-TSC2; immunoprecipitation with anti-HA; with or without IKKβ; MG132 in Supplementary Fig. 2B.
The target of test [3] is Tuberous sclerosis complex 2 (TSC2), endogenous (human (endogenous in MCF-7)) (UniProt P49815). In words: co-IP; endogenous proteins; MCF-7 serum-starved overnight, with or without TNFα 1 h; lysates immunoprecipitated with antibodies to ARD1 and TSC2; MG132 in Supplementary Fig. 2C.

B1: IκB kinase α (IKKα), endogenous, O15111 1-745 (enzyme)
chain: MERPPGLRPGAGGPWEMRERLGTGGFGNVCLYQHRELDLKIAIKSCRLELSTKNRERWCHEIQIMKKLNHANVVKACDVPEELNILIHDVPLLAMEYCSGGDLRKLLNKPENCCGLKESQILSLLSDIGSGIRYLHENKIIHRDLKPENIVLQDVGGKIIHKIIDLGYAKDVDQGSLCTSFVGTLQYLAPELFENKPYTATVDYWSFGTMVFECIAGYRPFLHHLQPFTWHEKIKKKDPKCIFACEEMSGEVRFSSHLPQPNSLCSLVVEPMENWLQLMLNWDPQQRGGPVDLTLKQPRCFVLMDHILNLKIVHILNMTSAKIISFLLPPDESLHSLQSRIERETGINTGSQELLSETGISLDPRKPASQCVLDGVRGCDSYMVYLFDKSKTVYEGPFASRSLSDCVNYIVQDSKIQLPIIQLRKVWAEAVHYVSGLKEDYSRLFQGQRAAMLSLLRYNANLTKMKNTLISASQQLKAKLEFFHKSIQLDLERYSEQMTYGISSEKMLKAWKEMEEKAIHYAEVGVIGYLEDQIMSLHAEIMELQKSPYGRRQGDLMESLEQRAIDLYKQLKHRPSDHSYSDSTEMVKIIVHTVQSQDRVLKELFGHLSKLLGCKQKIIDLLPKVEVALSNIKEADNTVMFMQGKRQKEIWHLLKIACTQSSARSLVGSSLEGAVTPQTSAWLPPTSAEHDHSLSCVVTPQDGETSAQMIEENLNCLGHLSTIIHEANEEQGNSMMNLDWSWLTE
For B1, the binding result in test [1] is given as “no binding”.

B2: Flag-IKKα, O15111 1-745 (enzyme)
chain: MERPPGLRPGAGGPWEMRERLGTGGFGNVCLYQHRELDLKIAIKSCRLELSTKNRERWCHEIQIMKKLNHANVVKACDVPEELNILIHDVPLLAMEYCSGGDLRKLLNKPENCCGLKESQILSLLSDIGSGIRYLHENKIIHRDLKPENIVLQDVGGKIIHKIIDLGYAKDVDQGSLCTSFVGTLQYLAPELFENKPYTATVDYWSFGTMVFECIAGYRPFLHHLQPFTWHEKIKKKDPKCIFACEEMSGEVRFSSHLPQPNSLCSLVVEPMENWLQLMLNWDPQQRGGPVDLTLKQPRCFVLMDHILNLKIVHILNMTSAKIISFLLPPDESLHSLQSRIERETGINTGSQELLSETGISLDPRKPASQCVLDGVRGCDSYMVYLFDKSKTVYEGPFASRSLSDCVNYIVQDSKIQLPIIQLRKVWAEAVHYVSGLKEDYSRLFQGQRAAMLSLLRYNANLTKMKNTLISASQQLKAKLEFFHKSIQLDLERYSEQMTYGISSEKMLKAWKEMEEKAIHYAEVGVIGYLEDQIMSLHAEIMELQKSPYGRRQGDLMESLEQRAIDLYKQLKHRPSDHSYSDSTEMVKIIVHTVQSQDRVLKELFGHLSKLLGCKQKIIDLLPKVEVALSNIKEADNTVMFMQGKRQKEIWHLLKIACTQSSARSLVGSSLEGAVTPQTSAWLPPTSAEHDHSLSCVVTPQDGETSAQMIEENLNCLGHLSTIIHEANEEQGNSMMNLDWSWLTE
Take B2: the binding entry in the test with HA-ARD1 (human), P41227 is recorded as “no binding”.

B3: IκB kinase β (IKKβ), endogenous (enzyme, UniProt O14920 1-756)
chain: MSWSPSLTTQTCGAWEMKERLGTGGFGNVIRWHNQETGEQIAIKQCRQELSPRNRERWCLEIQIMRRLTHPNVVAARDVPEGMQNLAPNDLPLLAMEYCQGGDLRKYLNQFENCCGLREGAILTLLSDIASALRYLHENRIIHRDLKPENIVLQQGEQRLIHKIIDLGYAKELDQGSLCTSFVGTLQYLAPELLEQQKYTVTVDYWSFGTLAFECITGFRPFLPNWQPVQWHSKVRQKSEVDIVVSEDLNGTVKFSSSLPYPNNLNSVLAERLEKWLQLMLMWHPRQRGTDPTYGPNGCFKALDDILNLKLVHILNMVTGTIHTYPVTEDESLQSLKARIQQDTGIPEEDQELLQEAGLALIPDKPATQCISDGKLNEGHTLDMDLVFLFDNSKITYETQISPRPQPESVSCILQEPKRNLAFFQLRKVWGQVWHSIQTLKEDCNRLQQGQRAAMMNLLRNNSCLSKMKNSMASMSQQLKAKLDFFKTSIQIDLEKYSEQTEFGITSDKLLLAWREMEQAVELCGRENEVKLLVERMMALQTDIVDLQRSPMGRKQGGTLDDLEEQARELYRRLREKPRDQRTEGDSQEMVRLLLQAIQSFEKKVRVIYTQLSKTVVCKQKALELLPKVEEVVSLMNEDEKTVVRLQEKRQKELWNLLKIACSKVRGPVSGSPDSMNASRLSQPGQLMSQPSTASNSLPEPAKKSEELVAEAHNLCTLLENAIQDTVREQDQSFTALDWSWLQTEEEEHSCLEQAS
As to B3, the binding result in test [2] is listed as “binds”.

B4: Flag-nIKKβ (kinase-dead mutant of IKKβ, K44A) (enzyme, UniProt O14920 1-756)
chain: MSWSPSLTTQTCGAWEMKERLGTGGFGNVIRWHNQETGEQIAIAQCRQELSPRNRERWCLEIQIMRRLTHPNVVAARDVPEGMQNLAPNDLPLLAMEYCQGGDLRKYLNQFENCCGLREGAILTLLSDIASALRYLHENRIIHRDLKPENIVLQQGEQRLIHKIIDLGYAKELDQGSLCTSFVGTLQYLAPELLEQQKYTVTVDYWSFGTLAFECITGFRPFLPNWQPVQWHSKVRQKSEVDIVVSEDLNGTVKFSSSLPYPNNLNSVLAERLEKWLQLMLMWHPRQRGTDPTYGPNGCFKALDDILNLKLVHILNMVTGTIHTYPVTEDESLQSLKARIQQDTGIPEEDQELLQEAGLALIPDKPATQCISDGKLNEGHTLDMDLVFLFDNSKITYETQISPRPQPESVSCILQEPKRNLAFFQLRKVWGQVWHSIQTLKEDCNRLQQGQRAAMMNLLRNNSCLSKMKNSMASMSQQLKAKLDFFKTSIQIDLEKYSEQTEFGITSDKLLLAWREMEQAVELCGRENEVKLLVERMMALQTDIVDLQRSPMGRKQGGTLDDLEEQARELYRRLREKPRDQRTEGDSQEMVRLLLQAIQSFEKKVRVIYTQLSKTVVCKQKALELLPKVEEVVSLMNEDEKTVVRLQEKRQKELWNLLKIACSKVRGPVSGSPDSMNASRLSQPGQLMSQPSTASNSLPEPAKKSEELVAEAHNLCTLLENAIQDTVREQDQSFTALDWSWLQTEEEEHSCLEQAS
Turning to B4, in the test with HA-ARD1 (human), the binding result is “binds”.

B5: Flag-IKKβ (enzyme, UniProt O14920 1-756)
chain: MSWSPSLTTQTCGAWEMKERLGTGGFGNVIRWHNQETGEQIAIKQCRQELSPRNRERWCLEIQIMRRLTHPNVVAARDVPEGMQNLAPNDLPLLAMEYCQGGDLRKYLNQFENCCGLREGAILTLLSDIASALRYLHENRIIHRDLKPENIVLQQGEQRLIHKIIDLGYAKELDQGSLCTSFVGTLQYLAPELLEQQKYTVTVDYWSFGTLAFECITGFRPFLPNWQPVQWHSKVRQKSEVDIVVSEDLNGTVKFSSSLPYPNNLNSVLAERLEKWLQLMLMWHPRQRGTDPTYGPNGCFKALDDILNLKLVHILNMVTGTIHTYPVTEDESLQSLKARIQQDTGIPEEDQELLQEAGLALIPDKPATQCISDGKLNEGHTLDMDLVFLFDNSKITYETQISPRPQPESVSCILQEPKRNLAFFQLRKVWGQVWHSIQTLKEDCNRLQQGQRAAMMNLLRNNSCLSKMKNSMASMSQQLKAKLDFFKTSIQIDLEKYSEQTEFGITSDKLLLAWREMEQAVELCGRENEVKLLVERMMALQTDIVDLQRSPMGRKQGGTLDDLEEQARELYRRLREKPRDQRTEGDSQEMVRLLLQAIQSFEKKVRVIYTQLSKTVVCKQKALELLPKVEEVVSLMNEDEKTVVRLQEKRQKELWNLLKIACSKVRGPVSGSPDSMNASRLSQPGQLMSQPSTASNSLPEPAKKSEELVAEAHNLCTLLENAIQDTVREQDQSFTALDWSWLQTEEEEHSCLEQAS
With B5, the binding result with HA-ARD1 (human) was “binds”.

B6: Myc-ARD1 (protein, UniProt P41227 1-235)
chain: MNIRNARPEDLMNMQHCNLLCLPENYQMKYYFYHGLSWPQLSYIAEDENGKIVGYVLAKMEEDPDDVPHGHITSLAVKRSHRRLGLAQKLMDQASRAMIENFNAKYVSLHVRKSNRAALHLYSNTLNFQISEVEPKYYADGEDAYAMKRDLTQMADELRRHLELKEKGRHVVLGAIENKVESKGNSPPSSGEACREEKGLAAEDSGGDSKDLSEVSETTESTDVKDSSEASDSAS
In the case of B6, the binding result with HA-TSC2 is recorded as “binds”.

B7: Arrest-defective protein 1 (ARD1), endogenous (protein, UniProt P41227 1-235)
chain: MNIRNARPEDLMNMQHCNLLCLPENYQMKYYFYHGLSWPQLSYIAEDENGKIVGYVLAKMEEDPDDVPHGHITSLAVKRSHRRLGLAQKLMDQASRAMIENFNAKYVSLHVRKSNRAALHLYSNTLNFQISEVEPKYYADGEDAYAMKRDLTQMADELRRHLELKEKGRHVVLGAIENKVESKGNSPPSSGEACREEKGLAAEDSGGDSKDLSEVSETTESTDVKDSSEASDSAS
On to B7, for which, in test [3], the binding result is given as “binds”.
